In the antibiotic and cytotoxicity screens of Wong et al. (2023):
This is one part of the list.

How the values were obtained:
HSkMC = human skeletal muscle cells; test: cytotoxicity call (relative viability < 0.9); conditions: 10 µM
HepG2 = test: cytotoxicity call (relative viability < 0.9); conditions: 10 µM
S. aureus RN4220 = test: growth inhibition call (relative growth <= 0.2); conditions: 50 µM

| SMILES | cytotoxicity call (HSkMC) | cytotoxicity call (HepG2) | growth inhibition call (S. aureus RN4220) |
| --- | --- | --- | --- |
| C[C@H]1CN([C@@H](C)CO)C(=O)c2cc(NS(C)(=O)=O)ccc2O[C@H]1CN(C)Cc1ccc(C(=O)O)cc1 | inactive | inactive | inactive |
| COc1ccc(CN(C)C[C@@H]2Oc3ccc(NC(=O)CCN4CCOCC4)cc3C(=O)N([C@H](C)CO)C[C@H]2C)cc1 | inactive | inactive | inactive |
| NCCN1CCO[C@@H](CC(=O)Nc2cc(Cl)cc(Cl)c2)C1=O | inactive | inactive | inactive |
| C[C@@H]1CCCCO[C@@H](CN(C)Cc2ccc(Cl)c(Cl)c2)[C@@H](C)CN([C@H](C)CO)C(=O)c2cc(NC(=O)Nc3cccc4ccccc34)ccc2O1 | inactive | inactive | inactive |
| CCS(=O)(=O)N[C@H]1CC[C@@H](CC(=O)NCc2ccccn2)O[C@H]1CO | inactive | inactive | inactive |
| O=C(C[C@@H]1C[C@@H]2c3cc(NS(=O)(=O)c4ccc(F)cc4)ccc3O[C@@H]2[C@@H](CO)O1)NCCN1CCCCC1 | inactive | inactive | inactive |
| CCCc1nc(C(C)(C)O)c(C(=O)O)n1Cc1ccc(-c2ccccc2-c2nn[nH]n2)cc1 | inactive | inactive | inactive |
| Cc1noc(C)c1NC(=O)Nc1ccc2c(c1)C(=O)N([C@@H](C)CO)C[C@@H](C)[C@@H](CN(C)C(=O)Nc1cccc3ccccc13)OCCCC[C@@H](C)O2 | inactive | inactive | inactive |
| NCCCCCC(=O)O | inactive | inactive | inactive |
| COc1ccc(CN(C)C[C@H]2OCCCC[C@@H](C)Oc3ccc(NS(=O)(=O)c4ccccc4)cc3C(=O)N([C@@H](C)CO)C[C@H]2C)cc1 | inactive | inactive | inactive |
| C[C@H]1CCCCO[C@H](CN(C)S(C)(=O)=O)[C@@H](C)CN([C@@H](C)CO)C(=O)c2cc(NS(C)(=O)=O)ccc2O1 | inactive | inactive | inactive |
| C[C@@H]1CN([C@H](C)CO)C(=O)c2c(c3ccccc3n2C)-c2ccccc2CO[C@@H]1CN(C)C(=O)Nc1cccc(Cl)c1Cl | active | inactive | inactive |
| COc1ccc(NC(=O)N(C)C[C@@H]2OCCCC[C@H](C)Oc3ccc(NC(=O)NC(C)C)cc3C(=O)N([C@@H](C)CO)C[C@@H]2C)cc1 | inactive | inactive | inactive |
| C[C@@H]1CCCCO[C@@H](CN(C)Cc2ccc(C(F)(F)F)cc2)[C@H](C)CN([C@@H](C)CO)C(=O)c2cc(NS(=O)(=O)c3ccc(Cl)cc3)ccc2O1 | active | active | inactive |
| Cc1noc(C)c1S(=O)(=O)N(C)C[C@@H]1Oc2ccc(NC(=O)Cn3cnnn3)cc2CC(=O)N([C@@H](C)CO)C[C@H]1C | inactive | inactive | inactive |
| COCC(=O)N1CC[C@]2(CC(C(=O)NCc3cnc(C)cn3)=NO2)C1 | inactive | inactive | inactive |
| NCC1(c2cccs2)CCCC1 | inactive | inactive | inactive |
| Cc1ccc(S(=O)(=O)Nc2ccc3c(c2)CC(=O)N([C@H](C)CO)C[C@@H](C)[C@@H](CN(C)Cc2ccc(Oc4ccccc4)cc2)O3)cc1 | inactive | active | inactive |
| C[C@H](CO)N1C[C@H](C)[C@H](CN(C)C(=O)Nc2ccc3c(c2)OCO3)Oc2c(NS(C)(=O)=O)cccc2C1=O | inactive | inactive | inactive |
| C[C@H](C(=O)N(C)C[C@@H]1OCc2ccccc2-c2c(n(C)c3ccccc23)C(=O)N([C@H](C)CO)C[C@H]1C)c1ccccc1 | inactive | inactive | inactive |
| C[C@H](CO)N1C[C@H](C)[C@H](CN(C)S(=O)(=O)c2cccc(F)c2)Oc2ncc(C#Cc3ccc(F)cc3)cc2C1=O | inactive | inactive | inactive |
| Cc1noc(C)c1NC(=O)Nc1ccc2c(c1)C(=O)N([C@@H](C)CO)C[C@H](C)[C@H](CN(C)Cc1ccc(Oc3ccccc3)cc1)O2 | inactive | inactive | inactive |
| C[C@@H]1CCCCO[C@H](CN(C)S(C)(=O)=O)[C@@H](C)CN([C@@H](C)CO)C(=O)c2cc(NC(=O)Nc3cccc4ccccc34)ccc2O1 | inactive | inactive | inactive |
| CC1CC2C3CC(F)C4=CC(=O)C=CC4(C)C3(F)C(O)CC2(C)C1(O)C(=O)COC(=O)C(C)(C)C (stereo not drawn) | inactive | inactive | inactive |
| O=C(C[C@H]1C=C[C@@H](NS(=O)(=O)c2ccccc2)[C@@H](CO)O1)NCc1ccncn1 | inactive | inactive | inactive |
| C[C@@H]1CCCCO[C@@H](CN(C)C(=O)CCC(F)(F)F)[C@@H](C)CN([C@H](C)CO)C(=O)c2cc(NS(=O)(=O)c3cccs3)ccc2O1 | inactive | inactive | inactive |
